# Assay results as given in the antibiotic and cytotoxicity screens of Wong et al. (2023).
# This is one part of the list.
# Legend:
# HSkMC = human skeletal muscle cells; assay: cytotoxicity call (relative viability < 0.9); conditions: 10 µM
# HepG2 = assay: cytotoxicity call (relative viability < 0.9); conditions: 10 µM
# S. aureus RN4220 = assay: growth inhibition call (relative growth <= 0.2); conditions: 50 µM
SMILES,cytotoxicity call (HSkMC),cytotoxicity call (HepG2),growth inhibition call (S. aureus RN4220)
C[C@H]1CCCCO[C@H](CN(C)C)[C@@H](C)CN([C@@H](C)CO)C(=O)c2cc(NC(=O)Nc3cccc4ccccc34)ccc2O1,inactive,inactive,inactive
C[C@@H]1CN([C@H](C)CO)S(=O)(=O)c2ccc(C#Cc3ccncc3)cc2O[C@@H]1CN(C)C(=O)C1CCOCC1,inactive,active,inactive
C[C@@H]1CN([C@@H](C)CO)C(=O)c2cc(C#Cc3cccnc3)cnc2O[C@H]1CN(C)S(C)(=O)=O,inactive,inactive,inactive
CC(C)=CC[N+]1(C)CCCCC1,inactive,inactive,inactive
C[C@@H]1CN([C@@H](C)CO)C(=O)c2cc(NC(=O)Cn3cnnn3)ccc2O[C@H]1CN(C)C(=O)Nc1ccc2c(c1)OCO2,inactive,inactive,inactive
C[C@@H]1CN([C@@H](C)CO)C(=O)CCCn2cc(nn2)CO[C@H]1CN(C)Cc1cccc2c1OCCCO2,inactive,inactive,inactive
CCC(=O)NCc1nn(C)c2c1COCC2,inactive,inactive,inactive
CCCN(C)C[C@H]1OCCCC[C@H](C)Oc2ccc(NC(=O)Nc3ccc(C(F)(F)F)cc3)cc2C(=O)N([C@@H](C)CO)C[C@H]1C,inactive,active,active
COCC(=O)Nc1ccc2c(c1)OC[C@@H](C)N(Cc1ccccc1F)C[C@H](C)[C@@H](OC)CN(C)C2=O,inactive,inactive,inactive
COC1=C(OC)C(=O)C(CCCCCCCCCCO)=C(C)C1=O,active,active,inactive
C[C@@H]1CCCCO[C@@H](CN(C)Cc2ccc3c(c2)OCO3)[C@H](C)CN([C@@H](C)CO)C(=O)c2cc(NC(=O)c3ccccc3)ccc2O1,inactive,active,inactive
CC1=NCCN1C(=O)[C@@H](N)CC(C)C,inactive,inactive,inactive
C[C@H]1CN([C@@H](C)CO)C(=O)CCCn2nncc2CO[C@@H]1CN(C)S(=O)(=O)c1cn(C)cn1,inactive,inactive,inactive
C[C@]1(C(=O)NCC(F)(F)F)c2ccccc2C(=O)N(Cc2cc(F)cc(C(F)(F)F)c2)[C@H]1c1ccc(CO)cc1,inactive,inactive,inactive
CC(C)=CCCC(C)=CCC1=C(C)C(=O)c2ccccc2C1=O,inactive,inactive,inactive
O=C(NCCN1CCCC1)[C@@H]1N[C@@H]2c3ccc(-c4ccccc4)c(=O)n3C[C@@H]2[C@H]1CO,inactive,inactive,inactive
C[C@H](CO)N1C[C@H](C)[C@H](CN(C)C(=O)C2CCCCC2)OCCCC[C@H](C)Oc2ccc(NC(=O)Nc3cccc4ccccc34)cc2C1=O,inactive,inactive,inactive
